# Results published in a collection of fitness landscapes (doi:10.1016/j.celrep.2020.107928).
# Over roughly 81,000 sequences, “one-hybrid fitness for binding NBS DNA” has its median near -0.1; the highest 2% begin near 0.36. Some of the results follow.
# B1: Caulobacter ParB omega fusion; a variant is named by its letters at X, in order, B8GW30 (parent)
# chain: MESVVVGEPGMSEGRRGLGRGLSALLGEVDAAPAQAPGEQLGGSREAPIEILQRNPDQPRRTFREEDLEDLSNSIREKGVLQPILVRPSPDTAGEYQIVAGERAWRAAQRAGLKTVPIMVRELDDLAVLEIGIIENVQRADLNVLEEALSYKVLMEKFERTQENIAQTIGKSXSHVANXMRLLXLPDEVQSYLVSGELTAXHARAIAAAADPVALAKQIIEGGLSVRETEALARKAPNLSAGKSKGGRPPRVKDTDTQALESDLSSVLGLDVSIDHRGSTGTLTITYATLEQLDDLCNRLTRGI
# Variants of: B1
# Test: one-hybrid fitness for binding NBS DNA (the Noc-binding site; scaled: cognate 1, non-cognate 0); higher = stronger binding
# Conditions: with NBS DNA site
# Procedure, shortened: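 The reporter was HIS3, with the binding site 19 bp from the promoter, in E. coli USO used for bacterial one-hybrid selection of Caulobacter ParB libraries with four specificity codons randomised. Growth was on M9 lacking histidine, with 0.1 mM IPTG and 5 mM 3-AT, for 48 hours at 37°C. Illumina sequencing covered plasmids before and after selection; three replicate libraries were pooled and variants with under 10 reads dropped. A fitness score is the log change in variant-to-wild-type read ratio, rescaled to the cognate and non-cognate references.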
row,Variant,one-hybrid fitness for binding NBS DNA
1,GCDG,≤ 0.2
2,WKLT,≤ 0.2
3,THGC,≤ 0.2
4,FNMR,≤ 0.2
5,RPKM,≤ 0.2
6,VQMT,≤ 0.2
7,RHYT,0.287
8,KYRI,≤ 0.2
9,HEGI,≤ 0.2
10,GPRD,≤ 0.2
11,KGTM,≤ 0.2
12,DTNW,≤ 0.2
13,LCDG,≤ 0.2
14,SQTW,≤ 0.2
15,MTAR,≤ 0.2
16,QSSV,≤ 0.2
17,QLWA,≤ 0.2
18,TSQM,≤ 0.2
19,TTEQ,≤ 0.2
20,APVL,≤ 0.2
21,WIQS,≤ 0.2
22,KSYI,≤ 0.2
23,HGSF,≤ 0.2
24,NKPT,≤ 0.2
25,VYCL,≤ 0.2

row,Variant,one-hybrid fitness for binding NBS DNA
1,TTDA,≤ 0.2
2,YMVS,≤ 0.2
3,YLHP,≤ 0.2
4,TGYR,≤ 0.2
5,SSQT,≤ 0.2
6,GTYD,≤ 0.2
7,FKSM,≤ 0.2
8,HLNP,≤ 0.2
9,DSTF,≤ 0.2
10,ASPM,≤ 0.2
11,TDSR,0.309
12,NADG,≤ 0.2
13,QSCW,≤ 0.2
14,AFYK,≤ 0.2
15,YPPP,≤ 0.2
16,AAGW,≤ 0.2
17,YPNP,≤ 0.2
18,LEQL,≤ 0.2
19,LDVG,≤ 0.2
20,DDNT,≤ 0.2
21,RIME,≤ 0.2
22,RLHW,≤ 0.2
23,VRVM,≤ 0.2
24,YRWC,≤ 0.2
25,MIEG,≤ 0.2

row,Variant,one-hybrid fitness for binding NBS DNA
1,ERSA,≤ 0.2
2,CCFG,≤ 0.2
3,SWYR,≤ 0.2
4,VHSR,≤ 0.2
5,QLGI,≤ 0.2
6,QRAP,0.264
7,FMVL,≤ 0.2
8,MLKE,≤ 0.2
9,KRTQ,≤ 0.2
10,FVDL,≤ 0.2
11,AEDR,≤ 0.2
12,SPLN,≤ 0.2
13,VPER,≤ 0.2
14,YTSC,≤ 0.2
15,RMVC,≤ 0.2
16,PNRN,≤ 0.2
17,HWSK,≤ 0.2
18,SYDC,≤ 0.2
19,PNGT,≤ 0.2
20,ERDV,≤ 0.2
21,HCFT,≤ 0.2
22,TSKW,≤ 0.2
23,IVHR,≤ 0.2
24,ENPA,≤ 0.2
25,IRRA,0.229

row,Variant,one-hybrid fitness for binding NBS DNA
1,SNGL,≤ 0.2
2,SRDD,≤ 0.2
3,KKRC,≤ 0.2
4,GGVI,≤ 0.2
5,RRTH,0.509
6,GLIS,≤ 0.2
7,ATVR,≤ 0.2
8,RIPT,≤ 0.2
9,TVSD,≤ 0.2
10,QCQP,≤ 0.2
11,WSNA,≤ 0.2
12,VEFL,≤ 0.2
13,HPTL,≤ 0.2
14,ATCK,≤ 0.2
15,DGAC,≤ 0.2
16,AMHR,≤ 0.2
17,ELPS,≤ 0.2
18,DEDC,≤ 0.2
19,AAGN,≤ 0.2
20,MQDW,≤ 0.2
21,GFRC,≤ 0.2
22,TQPN,≤ 0.2
